# Out of some 310,000 compounds screened, about 11,000 (3.5%) were called active. The inconclusive results got no clear call from the source; some entries with a clear call stand among them for comparison. The call rests on the fitted dose curve; in most records, active means well fitted inhibition curve with a large enough effect; inconclusive means small, poorly fitted or top-dose-only effect, or effect the other way; inactive means flat fitted curve, though single readings scatter. No potency is given beside an inconclusive call; the fits are too rough.
# Assay: VP16 counterscreen qHTS for inhibitors of ROR gamma transcriptional activity;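 further: Gal4-VP16 expression switched on by copper sulfate through the metallothionein promoter; nearly all actives have a fitted effect of over 50% in size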
# Conditions: Drosophila S2 Gal4-VP16 UAS-luciferase, luminescence, 20 h; series mostly up to 53.6 µM
# Potency means the concentration at half of the fitted maximal effect; tags describe the fitted curve by direction and shape.
row,Compound,Potency
1,Cc1ccc(C(N)=S)c(C)c1,"inconclusive [inhibitor, single point]"
2,COc1ccc2cc3c(N)c(C(=O)N4CCCC4)sc3nc2c1,inactive
3,COc1ccc(-c2cc(=O)c3c(OC)c(OC)c(OC)cc3o2)cc1OC,inactive
4,COCCCNS(=O)(=O)c1ccc(Oc2ncc(C(F)(F)F)cc2Cl)cc1,"inconclusive [inhibitor, partial curve, poor fit]"
5,Cn1c(=O)[nH]c(=O)c2c1nc(Br)n2CCSc1nnnn1-c1ccccc1,inactive
6,Cc1cc(C)cc(NCc2cc(=O)oc3cc(C)c(O)cc23)c1,"inconclusive [inhibitor, partial curve]"
7,CCOc1ccc2nc(SCC(=O)c3ccc(Cl)s3)sc2c1,"inconclusive [activator, single point]"
8,C#CCN(C)CCCOc1ccc(Cl)cc1Cl,"inconclusive [activator, partial curve]"
9,CC(C)(C)S(=O)(=O)/C(C#N)=N/Nc1ccc(Cl)cc1,"inconclusive [inhibitor, single point]"
10,C=CCn1c(-c2ccc(Cl)cc2)c[nH]c1=S,active: 2.82 µM
11,Cc1ccc2nsnc2c1S(=O)(=O)Nc1cccc2cccnc12,active: 0.631 µM
12,N#C/C(=C\Nc1ccccc1O)c1nc2ccccc2o1,active: 3.55 µM
13,CCOc1cc(S(=O)(=O)NCc2cccs2)ccc1Cl,inactive
14,CCCCCCc1cc2cc(-c3nnc(-c4ccccc4)o3)c(=O)oc2cc1O,"inconclusive [inhibitor, single point]"
15,Cc1nc2ccccc2c2oc(C(=O)N3CCN(C(=O)c4ccco4)CC3)cc12,"inconclusive [inhibitor, single point]"
16,O=C(CCC1CCCN(C(=O)c2ccoc2)C1)NCc1ccccc1F (stereo not drawn),inactive
17,CSc1ccc(/C=N/NC(=O)c2ccc(O)cc2)cc1,active: 2.24 µM
18,CC1CN/C(=C\C(=O)c2ccc(Br)cc2)C(=O)N1 (stereo not drawn),active: 11.2 µM
19,Cc1cc(C)c(OCC(=O)Nc2nnc(-c3ccco3)o2)c(C)c1,"inconclusive [inhibitor, single point]"
20,Cc1ccc2nc(N/N=C\c3ccc([N+](=O)[O-])o3)nc(-c3ccccc3)c2c1,inactive
21,CCOc1ccccc1N(CC(=O)Nc1ccccc1F)S(=O)(=O)c1ccccc1,inactive
22,Cc1cccc(-c2noc(CCCC(=O)N3CCOCC3)n2)c1,inactive
23,COc1ccc(-c2csc(Nc3cccc(C)n3)n2)cc1,"inconclusive [inhibitor, partial curve]"
24,CCCc1cc(=O)[nH]c(SCC(=O)N2CCN(S(=O)(=O)c3ccc4ccccc4c3)CC2)n1,"inconclusive [activator, single point]"
25,C=C(C)COc1ccc(-c2[nH]ncc2-c2ccc(OC)c(OC)c2)c(O)c1,active: 2.51 µM
26,Cc1cc2ccccc2n1CCNC(=O)c1cccs1,active: 14.1 µM

row,Compound,Potency
1,Cc1ccc(-n2nc3cc(C)c(NC(=O)c4cccnc4)cc3n2)cc1,"inconclusive [activator, full curve, poor fit]"
2,COc1cc(Cl)ccc1NC(=O)COc1ccccc1C(=O)NN,inactive
3,CC(=O)NC(CC(=O)N1CCN(C(C)=O)CC1)c1ccccc1 (stereo not drawn),inactive
4,CCCC1(CCC)NC(=O)N(CC(=O)c2cc(C)n(-c3ccc4c(c3)OCO4)c2C)C1=O,inactive
5,CCOC(=O)CN(C(=O)CNC(=O)c1ccco1)C(C(=O)NC1CCCCC1)c1cccnc1 (stereo not drawn),inactive
6,Cc1ccc(S(=O)(=O)NCCCNc2ccc([N+](=O)[O-])cc2)cc1,"inconclusive [inhibitor, single point]"
7,O=C(Nc1cccc(C(F)(F)F)c1)Nn1cnnc1,inactive
8,O=C(c1cc2n(n1)C(C(F)(F)F)CC(c1ccc(F)cc1)N2)N1CCCC1 (stereo not drawn),inactive
9,Cc1ccc2cc(CN(CC3CCCO3)S(=O)(=O)c3cccc4nsnc34)c(=O)[nH]c2c1 (stereo not drawn),inactive
10,O=C(N/N=C/c1ccc[nH]1)c1ccc([N+](=O)[O-])cc1,active: 5.62 µM
11,O=C(O)CN1C(=O)/C(=C\c2cc([N+](=O)[O-])ccc2OCc2ccccc2Cl)SC1=S,inactive
12,O=C(COC(=O)/C=C/c1ccccc1[N+](=O)[O-])Nc1ccc(OCc2ccccc2)cc1,"inconclusive [inhibitor, single point]"
13,CCN1CCN(C(=O)CN(C)S(=O)(=O)c2ccc(OC)c(C)c2)CC1,inactive
14,O=C(Nc1nc(-c2ccncc2)cs1)C1COc2ccccc2O1 (stereo not drawn),"inconclusive [inhibitor, single point]"
15,CC1(C)Oc2ccc(C(=O)N/N=C/c3ccc(O)cc3)cc2NC1=O,inactive
16,O=C(Nc1ccc(N2CCN(C(=O)c3ccc(Cl)cc3)CC2)cc1)c1ccc([N+](=O)[O-])o1,"inconclusive [inhibitor, single point]"
17,O=C(CCCN1C(=O)/C(=C\c2ccco2)SC1=S)Nc1ccc2ccccc2c1,active: 10 µM
18,N/C(Cc1cccs1)=N\OC(=O)COc1ccc(Br)cc1,"inconclusive [inhibitor, single point]"
19,Cc1ccc(N/C=C(/C#N)c2ccsc2)cc1,"inconclusive [activator, single point]"
20,O=C(Nc1ccc(Cl)cc1Cl)c1ccc2ncsc2c1,"inconclusive [activator, single point]"
21,O=C(c1ccc(Cl)cc1)C1CCCN(Cc2cnn(-c3ccccc3)c2)C1 (stereo not drawn),inactive
22,COc1cc(C(=O)NC2CCCc3c2cnn3-c2ccccc2F)cc(OC)c1OC (stereo not drawn),active: 5.01 µM
23,Cc1ccc(-c2cc(C(=O)N3N=C(C(F)F)CC3(O)C(F)F)c3ccccc3n2)cc1C (stereo not drawn),"inconclusive [inhibitor, single point]"
24,CCCNS(=O)(=O)c1ccc(NC(=O)c2ccccn2)cc1,"inconclusive [inhibitor, single point]"
25,S=C(N/N=C/c1ccccc1)N1CCOCC1,active: 2.51 µM
26,CC(=O)Nc1ncc(N=Nc2cccc(C(F)(F)F)c2)s1,"inconclusive [activator, partial curve]"

row,Compound,Potency
1,Cc1ccc(C)c(N=Nc2ccc(O)c3ncccc23)c1,inactive
2,CN1CC(=O)NC1=NC(=O)c1cc(F)c(F)cc1Cl,"inconclusive [inhibitor, single point]"
3,CCOC(=O)c1c(-c2ccc(F)cc2)cn2ccccc12,inactive
4,CC(=O)O[C@H]1CC[C@]2(C)[C@H]3CC=C4[C@@H]5[C@@H](C)[C@H](C)CC[C@]5(C(=O)O)CC[C@@]4(C)[C@]3(C)CC[C@H]2C1(C)C,inactive
5,CCC(=O)NC1=C(NC(C)c2ccccc2)C(=O)c2ccccc2C1=O (stereo not drawn),"inconclusive [inhibitor, partial curve]"
6,CCOC(=O)CS(=O)(=O)c1ccc(O)cc1,inactive
7,C/C(=N\NC(=O)COc1ccc(C(C)(C)C)cc1)c1ccc(N2CCOCC2)cc1,"inconclusive [inhibitor, single point]"
8,CCCN(CCC)Cc1c(C(=O)N/N=C/C(C)=C\c2ccco2)nnn1-c1nonc1N,"inconclusive [inhibitor, single point]"
9,Cc1ccccc1CNc1nc(N)n(-c2ccccc2)n1,inactive
10,Cc1occc1-c1nc(-c2ccccn2)no1,"inconclusive [inhibitor, single point]"
11,c1ccc(COc2ccccc2CNC23CC4CC(CC(C4)C2)C3)cc1,"inconclusive [inhibitor, single point]"
12,COc1cc(OC)nc(NC(=S)NC(=O)c2ccccc2)n1,"inconclusive [inhibitor, single point]"
13,Cc1cc(C)cc(NC(=O)Cn2ncn3c(cc4ccccc43)c2=O)c1,"inconclusive [inhibitor, full curve, poor fit]"
14,Cc1cc(C(C)(C)C)cc(C)c1S(=O)(=O)N1CCN(C(=O)c2cc([N+](=O)[O-])c[nH]c2=O)CC1,inactive
15,CN(C)/C=C1/C(=O)N(c2ccc([N+](=O)[O-])cc2)N=C1c1ccccc1,"inconclusive [inhibitor, single point]"
16,COc1ccc(C(=O)CNc2ccccc2CO)cc1,inactive
17,COc1cc(CNCCO)ccc1OCCc1ccccc1,"inconclusive [inhibitor, single point]"
18,COC(=O)COn1c(-n2nc(C)cc2C)nc2ccccc2c1=O,active: 8.91 µM
19,CCOC(=O)C1CCCN(C(=O)C2CCCN(S(=O)(=O)c3ccc4c(c3)oc(=O)n4C)C2)C1 (stereo not drawn),inactive
20,Cc1ccc(S(=O)(=O)Nc2ccccc2CNc2ccccn2)cc1,"inconclusive [inhibitor, full curve]"
21,O=C1C2C3CCC(C3)C2C(=O)N1CNc1ccccc1 (stereo not drawn),"inconclusive [activator, single point]"
22,CN(C)c1ccc(/C=N/NC(=O)C(O)(c2ccccc2)c2ccccc2)o1,active: 11.2 µM
23,CC1=NN(C(=O)COc2ccccc2C)C(O)(c2ccc(Cl)cc2)C1 (stereo not drawn),active: 7.94 µM
24,c1csc(-c2nn3c(Cn4nnc5ccccc54)nnc3s2)c1,inactive
25,CC(C)COC(=S)Nc1ccccc1,"inconclusive [inhibitor, single point]"
26,CCCCC1=NN(C(=O)c2ccncc2)C(O)(C(F)(F)F)C1 (stereo not drawn),"inconclusive [inhibitor, single point]"
